From the supplement of paper PMC3334620
In all, about 33,000 sequences were measured (“E-score (-0.5 to 0.5)”: median about -0.041, highest 2% from about 0.37 on). The list shows a part of the results.

Target: T1, Ecm22 (UniProt Q05958)
T1 sequence: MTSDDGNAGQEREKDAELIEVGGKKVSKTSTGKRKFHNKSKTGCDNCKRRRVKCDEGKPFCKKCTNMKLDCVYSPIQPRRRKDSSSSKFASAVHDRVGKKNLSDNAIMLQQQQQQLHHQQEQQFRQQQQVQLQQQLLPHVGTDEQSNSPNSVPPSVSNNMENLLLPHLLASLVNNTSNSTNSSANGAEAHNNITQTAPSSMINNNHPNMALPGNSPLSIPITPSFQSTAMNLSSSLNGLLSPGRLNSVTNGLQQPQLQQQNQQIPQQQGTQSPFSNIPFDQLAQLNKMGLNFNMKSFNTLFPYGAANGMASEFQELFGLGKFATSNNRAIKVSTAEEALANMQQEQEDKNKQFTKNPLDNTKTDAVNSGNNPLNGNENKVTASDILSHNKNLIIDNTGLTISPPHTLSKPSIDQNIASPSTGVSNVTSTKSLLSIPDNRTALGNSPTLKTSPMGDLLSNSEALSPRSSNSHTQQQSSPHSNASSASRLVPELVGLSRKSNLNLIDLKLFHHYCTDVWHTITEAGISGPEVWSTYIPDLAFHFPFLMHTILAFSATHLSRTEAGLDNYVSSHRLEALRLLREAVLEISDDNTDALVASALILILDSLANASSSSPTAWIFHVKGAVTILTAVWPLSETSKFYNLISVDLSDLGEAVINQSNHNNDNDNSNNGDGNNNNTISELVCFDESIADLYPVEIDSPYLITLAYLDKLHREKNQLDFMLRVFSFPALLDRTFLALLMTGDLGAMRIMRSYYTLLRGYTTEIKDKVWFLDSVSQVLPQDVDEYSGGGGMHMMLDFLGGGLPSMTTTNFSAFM
Test: PBM E-score (8-mer binding enrichment) (E-score (-0.5 to 0.5)); higher = stronger / more preferred TF binding; most listed sequences are background and not binding sites
Settings: protein concentration: 200 nM; construct: GST-full length
Protocol: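 Universal 'all 10-mer' protein binding microarrays (Agilent AMADID 015681) probed with GST-tagged S. cerevisiae TFs (full-length or DBD) made by in vitro transcription/translation (PURExpress), about 100-200 nM. Bound TF was detected with fluorescent anti-GST. Each ungapped 8-mer (which stands for itself and its reverse complement) is scored by the PBM enrichment score (E-score), a modified Wilcoxon-Mann-Whitney statistic from -0.5 to +0.5, computed with the Universal PBM Analysis Suite. Scale: above 0.35 generally sequence-specific binding.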

Point of comparison: AGACTTGA, “PBM E-score” value 0.0107. Against it:
- CCACCGGC — lower, -0.16
- CATCGCCG — lower, -0.00069
- ACCCCTTC — lower, -0.198
- CGTCTTTA — lower, -0.0108
- CCCTTGCC — lower, -0.122
- GAGCCGCA — lower, -0.0299
- CTACCCCC — lower, -0.41
- CCGACCGA — higher, 0.203
- GGACTATA — lower, -0.00516
- CGAATTGC — higher, 0.166
- AGGTACCG — higher, 0.139
- TCGCGGAA — higher, 0.0328
- GAATCTGC — lower, -0.0858
- GGACTGCC — lower, -0.238
- ATTAGCAC — lower, 0.00659
- ATGTGAAT — higher, 0.133
- AGCTACAG — lower, -0.26
- AAATCCAT — higher, 0.108
- AGTTTACA — lower, -0.0418
- CCTCCTTC — lower, -0.0536
- AAAGAAGC — lower, -0.0769
- CCAAGCGC — lower, -0.211
- ATACGGAT — higher, 0.332
- ATCCGGCG — higher, 0.031
- ACAGCGCA — lower, -0.19
- GCGAATTA — higher, 0.169
- AGAGAGAC — lower, -0.214
- GACGTGGA — lower, -0.195
- AAGTAGCC — lower, -0.295
- AACATTTC — lower, -0.0204
- ACAATTGG — lower, -0.16
- GAGCTTGC — lower, -0.183
- CCGACTCC — higher, 0.0133
- GGTAATCA — lower, -0.14
- TAAAAGGA — higher, 0.0115
- CTTGCGTC — lower, -0.2
- ACATTTTG — lower, -0.139
- ACCCACAT — lower, -0.00774
- CCACAAAG — lower, -0.0691
- CCGAATAA — higher, 0.221
- ACAGAAGA — lower, -0.118
- GTACGCTA — higher, 0.244
- ACGGTGTG — higher, 0.0821
- CAACAACC — higher, 0.075
- CGAGCCAC — higher, 0.2
- CCTCTGAC — lower, -0.173
- CTAAGTTA — lower, -0.039
- AAGATCAT — lower, -0.043
- TCCTCAGA — lower, -0.181
- CGCGCAAG — higher, 0.123
- GGCACCCC — lower, -0.0529
- AGCCGAGA — higher, 0.0153
- ATAGACGC — lower, -0.114
- ATCAGGAA — higher, 0.0244
- CCGCTGCA — lower, -0.182
- CTGTGACA — lower, -0.272
- AACAGAGC — lower, -0.163
- CTGCGAAG — lower, -0.0466
- AACATCTG — lower, -0.131
- TCGGGAGA — higher, 0.128
- AATCTTCT — lower, -0.151
- AGAATCCG — higher, 0.17
- AGACACGG — lower, -0.0314
- CTGTCTTA — lower, 0.00222
- CGACTAGC — higher, 0.0272
- ATGCCCCA — lower, -0.165
- CAAGGAGG — lower, -0.166
- GCTTGTTA — lower, -0.00655
- GCCCTTTA — lower, -0.12
- ACCACCAT — lower, -0.103
- AATAAGCT — lower, -0.013
- GATTTAAA — lower, -0.158
- CGTCTTGC — lower, -0.128
- GGCCGATA — lower, -0.032
- ATCAAGAT — lower, -0.0385
- AGGGCTTC — lower, -0.0968
- TACTTTAA — lower, -0.0463
- ACAAGGGG — lower, -0.185
- TTCACGAA — higher, 0.104
- ATGGCTTA — lower, -0.0613
- ACCTATCG — higher, 0.131
- CCAATATA — lower, -0.197
- CATTCCGG — lower, -0.248
- CAGGCCCC — lower, -0.236
- GCCATTAC — higher, 0.0127
- GCTATAGC — lower, -0.117
- AAGCTAGG — lower, -0.253
- CCCCAGTC — lower, -0.0807
- CAGCAATA — lower, -0.101
- CCCATGCA — lower, -0.235
- TCTATAAA — higher, 0.166
- CATCTTAC — lower, -0.13
- ACAACTAT — lower, -0.0516
- AGCATAGG — lower, -0.204
- CGGATATC — higher, 0.181
- ATAGTCGA — higher, 0.127
- ACACTAGA — higher, 0.0273
- ACGATGGA — higher, 0.335
- AAGTAGGC — lower, -0.0192
- AGATGCCG — lower, -0.0311
- AGGGGATG — lower, -0.258
- ATTGATGA — higher, 0.0159
- CGGCCCAA — higher, 0.165
- CGGAACCA — lower, -0.0635
- GACTAGCC — lower, -0.1
- TTAGTAAA — lower, -0.0125
- ACCGCGAG — higher, 0.109
- CTGTCCAC — lower, -0.197
- CCACGAGG — lower, 0.00398
- AAATATAA — higher, 0.0754
- ACTACAGC — lower, -0.115
- CCGGGCGA — lower, -0.111
- AGCGTCGC — higher, 0.251
- ATGACACG — higher, 0.0709
- AAACCGAG — higher, 0.252
- AAGCAGGG — lower, -0.121
- GCATAATA — higher, 0.224
- AGGACGGA — lower, -0.0124
- GGTGGGGA — lower, -0.0897
- AAACTGTA — higher, 0.154
- ACAATTTG — lower, -0.0227
- AGTGTAAT — lower, -0.0548
- AAACGGCG — higher, 0.391
- CACTAAAC — higher, 0.173
- AGCGAGGA — higher, 0.265
- CATACGGA — higher, 0.362
- CATGAAAG — higher, 0.0691
- CCGGGCGC — lower, -0.265
- AGGGCAAA — lower, -0.0896
- GCGCAAAC — higher, 0.11
- GCTGCAAC — lower, -0.0658
- ATGTGTTC — lower, -0.187
- GCCAGCAC — lower, -0.29
- TCGACGAA — higher, 0.0659
- CGCACCCG — higher, 0.23
- TCCGGAAA — lower, 0.00935
- GTTAGGAA — higher, 0.0589
- CACATGAG — lower, -0.269
- ATGCCCGC — higher, 0.0331
- CGAGCGCA — higher, 0.195
- CAACTACC — lower, -0.0922
- ACTTAAAC — higher, 0.175
- TAGACGCA — higher, 0.0239
- ATATTTGC — higher, 0.0527
- AGCAGATC — lower, -0.0426
- ATCGCAGG — lower, -0.119
- GAGCGTGC — higher, 0.151
- CGGGCGAG — higher, 0.0404
- ATCGCCTG — lower, -0.219
- AAATAACG — higher, 0.171
- GCAGAGGC — lower, -0.2
- AGACGCAA — lower, -0.201
- GGGCAGAA — lower, -0.0488
- GGATGTAA — higher, 0.037
- ATTGAGAC — lower, -0.252
- CACTTTAG — lower, -0.165
- GGATTCTA — lower, -0.0442
- ATCTGTTC — lower, -0.0862
- CTCGTAGC — higher, 0.449
- GGCTCAAC — lower, -0.155
- CGTCTTAC — higher, 0.0844
- CCCTTACG — higher, 0.134
- CCGAAATC — higher, 0.0336
- CATATCTA — higher, 0.0239
- TGTGCAAA — higher, 0.0842
- AGCGGGTA — higher, 0.107
- AACACGCA — lower, -0.133
- CGTCTCCC — higher, 0.0394
- GCATGCGC — lower, -0.108
- AGTACAAT — higher, 0.0372
- CATGCCCC — lower, -0.167
- TGTTGGAA — lower, -0.112
- CAGAAAGC — lower, -0.0509
- AAGTCCGT — lower, 0.00771
- ACGTCGAA — higher, 0.195
- GGTTTAAA — lower, -0.119
- GTGCACAA — higher, 0.0231
- ATTGTCTG — higher, 0.0507
- AGTACCGC — higher, 0.148
- ATGGTCGG — higher, 0.17
- AGGCATAA — lower, -0.16
- CTGCACTA — lower, -0.203
- CAATATAG — lower, -0.0536
- CTGCTAGC — lower, -0.316
- CTGAATTA — lower, -0.1
- AAATTACT — lower, -0.0113
- AGCGCAAT — lower, -0.00222
- ACTAGGAC — lower, -0.332
- AACTCTGA — lower, 0.00273
- AGATCTTG — lower, -0.146
- AACCAGAA — lower, 0.00935
- GAAAGTGA — lower, -0.193
- CCGACCAC — higher, 0.0939
- TTAGCGAA — higher, 0.289
- CATTGAAG — lower, -0.272
- CGGCTCGC — higher, 0.24
- CAGCAAAC — higher, 0.0897
- CCCTACTA — lower, -0.225
- GATATGTA — lower, -0.0264
- CGATACGA — higher, 0.454
- ACTTTTAT — lower, -0.217
- TAGCGTGA — lower, -0.0134
- TGGGTACA — lower, -0.127
- AATAAGAT — lower, -0.0294
- GGGTAATA — higher, 0.0371
- ATCATTTG — lower, -0.0915
- CCCCTACC — lower, -0.121
- ACAAAAAG — higher, 0.14
- GAAGTAGA — higher, 0.0842
- ACAAGCAT — lower, -0.148
- ATGCTGAC — lower, -0.0984
- TCACTGCA — lower, -0.0663
- TAAACGGA — higher, 0.433
- CGATGCTC — higher, 0.106
- AGCCACAG — lower, -0.205
- CGTTATGC — lower, 0.00819
- CTTACTGA — higher, 0.0265
- CCCGATAG — lower, -0.0167
